Out of some 48,000 compounds screened, about 450 (0.94%) were called active. About 19% were inconclusive and are not listed. Calls come from the whole dose curve; as a rule, active = well fitted inhibition curve with a large enough effect; inconclusive = small, poorly fitted or top-dose-only effect; inactive = no such curve, though single readings can be large or run the other way. This is one part of the list.
Test: Primary qHTS for Identification of Small Molecule Inhibitors of Huntingtin Promoter Activity; note: nearly all actives have a fitted effect of over 50% in size
Conditions: HEK293 HTT promoter firefly luciferase reporter (activity 0% = vehicle and -100% = no light), 24 h; series mostly up to 57.5 µM; activity change, negative = inhibition: at the top concentration
Summary of the method: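 HEK293 Fluc reporter, 2,500 cells/well, 24 h pre-culture; cpds up to 57.5 uM final, 24 h 37 degrees C; Dual-Glo, 10 min RT; normalized vehicle = 0%, zero RLU = -100%.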

Activity change, negative = inhibition, inactive:
CN(Cc1ccco1)C(=O)c1ccc2c(c1)N(Cc1ccccc1F)C(=O)c1ccccc1S2 -24%
CCc1ccc(NC(=O)CN2CCCN(Cc3cccc(Cl)c3)S2(=O)=O)cc1 -12.8%
CCOc1ccc(NC(=O)c2cc(S(=O)(=O)N3CCCCCC3)cn2C)cc1 -10%
COc1ccc2c(c1)c1c(c(=O)n(-c3ccc(F)c(Cl)c3)c(=O)n1CC(=O)N1CCCC1)n2C -4.09%
Cc1c2cnn(-c3ccccc3)c(=O)c2c(C)n1CC(=O)NCCc1ccc(Cl)cc1 -14.2%
CC(=O)N1CCc2c(sc3c2c(=O)n(-c2ccccc2)c(=O)n3CC(=O)Nc2ccccc2)C1 -14.1%
COc1cc(CNC(=O)c2ccc3c(c2)N(C)C(=O)C2CCCCN32)cc(OC)c1OC (stereo not given) -1.44%
O=C(O)c1ccc(CNCc2ccc(Cl)cc2)s1 -11.5%
Cc1ccc2nc(Nc3cccc(Cl)c3C)c(-n3nc(C)cc3C)nc2c1 8.12%
CC(C)CN(C(=O)c1cccc(S(=O)(=O)N2CCCCC2)c1)C1CCS(=O)(=O)C1 (stereo not given) -20.4%
Cc1ccccc1NC(=O)Cn1c(SCC(=O)Nc2ccc(F)cc2)nc2ccccc21 -20.1%
CCOC(=O)c1ccc(NC(=O)Cn2c(=O)n(-c3ccc(C)cc3)c(=O)c3c2cnn3C)cc1 -8.56%
Cc1c(-c2nc(-c3ccc4c(c3)OCO4)no2)nnn1-c1ccc(Br)cc1F 13.3%
Cc1ccc(CNC(=O)Cc2c(C)c3cc4c(C)coc4cc3oc2=O)cc1 -2.57%
O=C(COc1ccccc1Cl)OCc1cc(=O)n2nc(-c3cccs3)sc2n1 -20.6%
CCOC(=O)c1c(NC(=O)c2nc(SCC)ncc2Cl)sc(C(C)=O)c1C -11.9%
COc1ccc([C@@H]2CC(=O)c3c(O)cc(O[C@@H]4O[C@H](CO[C@@H]5O[C@@H](C)[C@H](O)[C@@H](O)[C@@H]5O)[C@@H](O)[C@H](O)[C@@H]4O)cc3O2)cc1O -3.42%
COc1ccc(C(=O)OCc2cc(=O)n3nc(-c4cccs4)sc3n2)cc1 0.526%
CCC(Cn1nnc2ccccc2c1=O)NC(=O)Nc1cccc(C)c1C (stereo not given) -3.77%
Cc1ccc(NC(=O)C2CCCN(c3nnc(C)c4c(C)n(-c5ccccc5)nc34)C2)c(Cl)c1 (stereo not given) 10.2%
CCC(=O)N1CCc2cc(Br)cc(S(=O)(=O)CCC(=O)N3CCN(c4cccc(C(F)(F)F)c4)CC3)c21 -22.1%
CC1=C(C(=O)Nc2ccccc2)C(c2ccncc2)n2nc(SCc3ccccc3Cl)nc2N1 (stereo not given) -16%
O=C(Cn1c(=O)n(Cc2ccco2)c(=O)c2ccccc21)Nc1ccc(Cl)cc1Cl -4.07%
O=C(Cn1c(=O)ccc2cc(S(=O)(=O)N3CCCC3)ccc21)NCc1ccc(Cl)cc1 -12%
CCN(CC)S(=O)(=O)c1ccc2nc(NC(=O)c3cccnc3)sc2c1 -21.9%
COc1cc(-c2noc(-c3ccc(N4CCN(C)CC4)c([N+](=O)[O-])c3)n2)cc(OC)c1OC -4.5%
CCOC(=O)c1cc(S(=O)(=O)NCc2ccccc2)[nH]n1 -0.31%
CCC(CO)NC(=O)C(=O)Nc1c2c(nn1-c1ccc(F)cc1)CSC2 (stereo not given) -20.6%
Cc1cc(Nc2ccc(C)c(Cl)c2)n2nc(Cc3ccccc3)nc2n1 -25.3%
COCCn1c(=O)[nH]c2cc(C(=O)NCc3ccccc3Cl)ccc2c1=O -16.1%
CCOc1ccc(NC(=O)c2c(Nc3ccc(OC)cc3OC)sc(C(=O)c3ccc(Cl)cc3)c2N)cc1 -15.4%
CCOC(=O)c1cccc(NC(=O)c2cc3sccc3n2Cc2ccc(Cl)cc2)c1 -21.3%
CCOC(=O)c1cnn(-c2ccc(OC)cc2)c1C1CCN(C(=O)OC(C)(C)C)CC1 -28.3%
Cc1cccc(-c2nc(SCc3ccc(Br)cc3)n3[nH]c(=O)cc3n2)c1 -1.48%
CC1CCCCN1c1csc2ccc(F)cc2c1=O (stereo not given) 37.3%
Cn1nc(C(=O)Nc2cc(F)ccc2F)c2c1-c1ccccc1SC2 15%
CCOc1ccn(-c2ccc(F)cc2)c(=O)c1C(=O)Nc1ccc(Oc2ccnc(N)c2Cl)c(F)c1 -9.3%
CSc1nc2sc3c(c2c(=O)n1-c1ccc(C)c(Cl)c1)CCN(C(C)=O)C3 -10.1%
CCOc1ccc(CCNC(=O)c2ccc3c(c2)c(C)c(C)n3C)cc1 2.06%
COC(=O)c1ccc(NC(=O)CSc2nc(=O)n(Cc3ccco3)c3c2CCC3)cc1 0%
COc1cc(C(=O)N(Cc2ccc(C(C)C)cc2)C2CCS(=O)(=O)C2)cc(OC)c1OC (stereo not given) -12.3%
CC(=O)C1=C(OC(=O)C(C)C)c2ccccc2S(=O)(=O)N1Cc1ccccc1 -15.8%
CCN(CC)CCNC(=O)c1ccc(NC(C)=O)cc1 1.63%
Cc1ccc(CNC(=O)CC2Oc3ccccc3NC2=O)cc1 (stereo not given) -1.99%
CCOC(=O)C1CCCN(C(=O)Cn2ncc3c([nH]c4ccccc43)c2=O)C1 (stereo not given) -5.56%
Cc1ccc(N2CC3=C(C2=O)C(c2ccc(Br)cc2)NC(=O)N3C)cc1 (stereo not given) 4.99%
CC(C)c1ccc(NS(=O)(=O)c2ccc3[nH]cc(C(=O)NC4CCCC4)c(=O)c3c2)cc1 8.14%
O=C1Cc2cc(S(=O)(=O)N3CCN(c4ccccc4)CC3)ccc2N1 -14.9%
CCOc1ccccc1-n1ccnc(NCc2ccc(F)cc2)c1=O -19.5%
Cc1cccc(NC(=O)Nc2nnc(N(C)C3CCCCC3)s2)c1C -11.6%
Cc1nn(CC(=O)NCc2ccco2)c(=O)c2cc3ccccc3n12 -9.47%
CCc1ccccc1N(C)C(=O)c1cn(CC(C)C)c(=O)c2cc(OC)c(OC)cc12 -18.1%
O=C(CCC(=O)N1Cc2ccccc2Oc2ncccc21)Nc1ccc(Cl)cc1 -34.2%
COc1ccc(-c2nn(CC(=O)NC3CCCC3)c3c2cnc2ccc(F)cc23)cc1 55.8%
CC1CCN(S(=O)(=O)c2ccc3c(c2)N(CC(=O)NCc2ccccc2)C(=O)CO3)CC1 -19.4%
COC(=O)c1ccc(Cl)cc1NC(=O)N1CC=C(c2c[nH]c3ccccc23)CC1 -28.9%
O=C(Cn1ncc2c(=O)oc3ccccc3c21)Nc1cc(F)ccc1F -16.6%
O=C(CSc1nc2nccnc2c(=O)n1CCc1c[nH]c2ccccc12)Nc1ccccc1F 1.64%
Oc1ccccc1Nc1nc(-c2ccccc2)c2cc(Cl)ccc2n1 -11.4%
Cc1cccc(OCCCC(=O)Nc2sc3c(c2C(N)=O)CCC(C)C3)c1 (stereo not given) -26%
